In the supplement of paper PMC4604168 (melanoma cell lines):
Some of the results follow. Single values are uncertain, as repeats are few or missing.

Tested on: LB2518-MEL
Test: cell count relative to DMSO control; melanoma cells; higher = more viable cells
Conditions: library dose: low library concentration; 72 h
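Also: cell number obtained by counting DAPI-stained nuclei in high-throughput microscope images with image analysis software, screen run in 1,536-well plates.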

Compound	cell count [%]
N#Cc1c(O)c2c(-c3ccc(-c4ccccc4O)cc3)csc2[nH]c1=O + O=C(Oc1ccc([N+](=O)[O-])cc1)N1CCC(C(O)(c2ccc3c(c2)OCO3)c2ccc3c(c2)OCO3)CC1 [JZL184] (first compound 2 µM, partner dose 1 µM)	104
Cn1nnc2c(C(N)=O)ncn2c1=O [temozolomide] + Cc1cc(SCc2sc(-c3ccc(C(F)(F)F)c(F)c3)nc2C)ccc1OCC(=O)O [GW0742] (first compound 2 µM, partner dose 2 µM)	117
NC1(c2ccc(-c3nc4ccn5c(=O)[nH]nc5c4cc3-c3ccccc3)cc2)CCC1 + C[As](C)SC[C@H](NC(=O)CC[C@H](N)C(=O)O)C(=O)NCC(=O)O [Darinaparsin] (first compound 0.4 µM, partner dose 0.4 µM)	87.2
COc1ccc(-c2ccc3c(N4CCOCC4)nc(N4C[C@@H](C)O[C@@H](C)C4)nc3n2)cc1CO + O=C(Oc1ccc([N+](=O)[O-])cc1)N1CCC(C(O)(c2ccc3c(c2)OCO3)c2ccc3c(c2)OCO3)CC1 [JZL184] (first compound 0.02 µM, partner dose 1 µM)	112
Cc1ccc(NC(=O)c2cccc(N(C)C)c2)cc1NC(=O)c1ccc(O)cc1 + O=C(Oc1ccc([N+](=O)[O-])cc1)N1CCC(C(O)(c2ccc3c(c2)OCO3)c2ccc3c(c2)OCO3)CC1 [JZL184] (first compound 2 µM, partner dose 1 µM)	86.7
Cn1sc(=O)n(Cc2ccccc2)c1=O + C[C@]12O[C@H](C[C@]1(O)CO)n1c3ccccc3c3c4c(c5c6ccccc6n2c5c31)CNC4=O [Lestaurtinib] (first compound 0.4 µM, partner dose 0.004 µM)	88
Cc1cc(SCc2sc(-c3ccc(C(F)(F)F)c(F)c3)nc2C)ccc1OCC(=O)O + Oc1cc(-c2nc(-c3ccccc3)[nH]c2-c2ccncc2)ccc1Cl [L779450] (first compound 2 µM, partner dose 0.2 µM)	95.8
O=S(=O)(c1ccccc1)N(CC(F)(F)F)c1ccc(C(O)(C(F)(F)F)C(F)(F)F)cc1 + Cc1cc(SCc2sc(-c3ccc(C(F)(F)F)c(F)c3)nc2C)ccc1OCC(=O)O [GW0742] (first compound 1.4 µM, partner dose 2 µM)	97.8
COC(=O)c1sccc1S(=O)(=O)Nc1ccc(Nc2ccccc2)cc1OC + C/C(O)=C(\C#N)C(=O)Nc1cc(Br)ccc1Br [LFM-A13] (first compound 1 µM, partner dose 2 µM)	107
Cc1ccc(Nc2nccc(N(C)c3ccc4c(C)n(C)nc4c3)n2)cc1S(N)(=O)=O [Pazopanib] + N.N.[Cl][Pt][Cl] [cisplatin] (first compound 0.4 µM, partner dose 1.6 µM)	102
COc1cc(Nc2ncc(F)c(Nc3ccc4c(n3)NC(=O)C(C)(C)O4)n2)cc(OC)c1OC [Tamatinib] + O=C(Oc1ccc([N+](=O)[O-])cc1)N1CCC(C(O)(c2ccc3c(c2)OCO3)c2ccc3c(c2)OCO3)CC1 [JZL184] (first compound 0.4 µM, partner dose 1 µM)	93.2

Tested on: LOXIMVI
Test: as above
Conditions: library dose: low library concentration; 72 h

Compound	cell count [%]
Cc1cc(N2CCOCC2)cc2[nH]c(-c3c(NC[C@@H](O)c4cccc(Cl)c4)cc[nH]c3=O)nc12 + O=C(Oc1ccc([N+](=O)[O-])cc1)N1CCC(C(O)(c2ccc3c(c2)OCO3)c2ccc3c(c2)OCO3)CC1 [JZL184] (first compound 0.2 µM, partner dose 1 µM)	79.6
COc1cc2c(Oc3ccc4[nH]c(C)cc4c3F)ncnc2cc1OCCCN1CCCC1 [cediranib] + O=C(Oc1ccc([N+](=O)[O-])cc1)N1CCC(C(O)(c2ccc3c(c2)OCO3)c2ccc3c(c2)OCO3)CC1 [JZL184] (first compound 0.4 µM, partner dose 1 µM)	109
CCN(CC)CCNC(=O)c1c(C)[nH]c(/C=C2\C(=O)Nc3ccc(F)cc32)c1C [sunitinib] + C[As](C)SC[C@H](NC(=O)CC[C@H](N)C(=O)O)C(=O)NCC(=O)O [Darinaparsin] (first compound 0.4 µM, partner dose 0.4 µM)	126
COc1ccc2c(c1)CCC1C2CCC2(C)C(NCCCCCCN3C(=O)C=CC3=O)CCC12 (configuration not stated) + C/C(O)=C(\C#N)C(=O)Nc1cc(Br)ccc1Br [LFM-A13] (first compound 0.4 µM, partner dose 2 µM)	85.4
COc1cc2c(Oc3ccc4[nH]c(C)cc4c3F)ncnc2cc1OCCCN1CCCC1 [cediranib] + Cc1cc(SCc2sc(-c3ccc(C(F)(F)F)c(F)c3)nc2C)ccc1OCC(=O)O [GW0742] (first compound 0.4 µM, partner dose 2 µM)	102
Cn1cncc1[C@@](N)(c1ccc(Cl)cc1)c1ccc2c(c1)c(-c1cccc(Cl)c1)cc(=O)n2C [tipifarnib] + Cc1cc(SCc2sc(-c3ccc(C(F)(F)F)c(F)c3)nc2C)ccc1OCC(=O)O [GW0742] (first compound 0.01 µM, partner dose 2 µM)	110
O=C(Nc1ccccc1)c1cc([N+](=O)[O-])ccc1Cl + Cc1cc(SCc2sc(-c3ccc(C(F)(F)F)c(F)c3)nc2C)ccc1OCC(=O)O [GW0742] (first compound 2 µM, partner dose 2 µM)	103
O=C(Oc1ccc([N+](=O)[O-])cc1)N1CCC(C(O)(c2ccc3c(c2)OCO3)c2ccc3c(c2)OCO3)CC1 + O=c1cc(-c2cccc3c2Sc2ccccc2S3)oc(N2CCOCC2)c1 [KU55933] (first compound 1 µM, partner dose 1 µM)	122
C[C@]1(c2nc3c(C(N)=O)cccc3[nH]2)CCCN1 [Veliparib] + C/C(O)=C(\C#N)C(=O)Nc1cc(Br)ccc1Br [LFM-A13] (first compound 1.4 µM, partner dose 2 µM)	101
O=C(Nc1ccccc1)c1cc([N+](=O)[O-])ccc1Cl + O=C(Oc1ccc([N+](=O)[O-])cc1)N1CCC(C(O)(c2ccc3c(c2)OCO3)c2ccc3c(c2)OCO3)CC1 [JZL184] (first compound 2 µM, partner dose 1 µM)	87.1
CCc1ccc(CCOc2ccc(CC3SC(=O)NC3=O)cc2)nc1 (configuration not stated) [pioglitazone] + O=C(Oc1ccc([N+](=O)[O-])cc1)N1CCC(C(O)(c2ccc3c(c2)OCO3)c2ccc3c(c2)OCO3)CC1 [JZL184] (first compound 2 µM, partner dose 1 µM)	111
O=C(Nc1cc(C(F)(F)F)cc(C(F)(F)F)c1)c1cc(Cl)ccc1O + Cn1cc(C2=C(c3cn(C4CCN(Cc5ccccn5)CC4)c4ccccc34)C(=O)NC2=O)c2ccccc21 [Enzastaurin] (first compound 0.016 µM, partner dose 0.8 µM)	78.2
Cc1ccc(Nc2nccc(N(C)c3ccc4c(C)n(C)nc4c3)n2)cc1S(N)(=O)=O [Pazopanib] + Cn1cc(C2=C(c3cn(C4CCN(Cc5ccccn5)CC4)c4ccccc34)C(=O)NC2=O)c2ccccc21 [Enzastaurin] (first compound 0.4 µM, partner dose 0.8 µM)	74.9
O=C(Nc1cc(C(F)(F)F)cc(C(F)(F)F)c1)c1cc(Cl)ccc1O + N.N.[Cl][Pt][Cl] [cisplatin] (first compound 0.016 µM, partner dose 1.6 µM)	99.8
O=C(Nc1cccc(Cl)c1)Nc1ncc(CCNc2ncnc3ccsc23)s1 + O=C(Oc1ccc([N+](=O)[O-])cc1)N1CCC(C(O)(c2ccc3c(c2)OCO3)c2ccc3c(c2)OCO3)CC1 [JZL184] (first compound 0.0008 µM, partner dose 1 µM)	104
N#Cc1c(O)c2c(-c3ccc(-c4ccccc4O)cc3)csc2[nH]c1=O + Cc1cc(SCc2sc(-c3ccc(C(F)(F)F)c(F)c3)nc2C)ccc1OCC(=O)O [GW0742] (first compound 2 µM, partner dose 2 µM)	108
O=C(Nc1cccc(Cl)c1)Nc1ncc(CCNc2ncnc3ccsc23)s1 + Cc1cc(SCc2sc(-c3ccc(C(F)(F)F)c(F)c3)nc2C)ccc1OCC(=O)O [GW0742] (first compound 0.0008 µM, partner dose 2 µM)	115
O=C(Oc1ccc([N+](=O)[O-])cc1)N1CCC(C(O)(c2ccc3c(c2)OCO3)c2ccc3c(c2)OCO3)CC1 + Cn1cc(/C=C2\C(=O)Nc3cccnc32)c2ccccc21 [GW441756] (first compound 1 µM, partner dose 0.4 µM)	88.4
Cn1cnc2c(F)c(Nc3ccc(Br)cc3Cl)c(C(=O)NOCCO)cc21 [selumetinib] + C[As](C)SC[C@H](NC(=O)CC[C@H](N)C(=O)O)C(=O)NCC(=O)O [Darinaparsin] (first compound 0.015 µM, partner dose 0.4 µM)	86.3
CN(C)S(=O)(=O)c1ccc2c(c1)/C(=C/c1cc3c([nH]1)CCCC3)C(=O)N2 + Cc1cc(SCc2sc(-c3ccc(C(F)(F)F)c(F)c3)nc2C)ccc1OCC(=O)O [GW0742] (first compound 0.4 µM, partner dose 2 µM)	92.9
C/C(O)=C(\C#N)C(=O)Nc1cc(Br)ccc1Br + CC(C)CCN1c2nc(Nc3cc(F)c(O)c(F)c3)ncc2N(C)C(=O)C1C [BID1870] (first compound 2 µM, partner dose 0.2 µM)	115
